Results as given in the supplement of paper PMC12632987.
In all, about 2,300 sequences were measured (“median log2 fold change of GCK-ALFA target abundance (FLAG IP / Myc IP barcode read proportion)”: median about 0.095, lowest 2% from about -0.47 on). This is one part of the list.

B1: LC3A_3_1766 (protein)
chain: MEEKVEEVRERLKELGADEETIETAAEAVRLLLERGLEETAEEFVETLEELLKKSKELAADLARDVLEILLTSDLSPEEIAEEVREEIRNYRLEAEIEEL
B2: LC3A_132_240 (protein)
chain: SEELYEKLRKEAEELLKKIRENLDDLEKVKELVAKLEELLDRALEELTPEEVEELAREVAERLEEIREEAEKAGKEEVASLLENAAMYADGIAIEAELKL
B3: LC3A_147_505 (protein)
chain: VKLEVDIDIITKDAVEEVKKFVEEVKKELEEKGFEVKVKIKVEKLDEKTYYIEIEIEVKAETKEEAEEAANYIIDRFEEFEEKNKDKILGSLISVEIIEE
B4: LC3A_28_955 (protein)
chain: SALEKQLEEVLKQAKEAAKAGKAEVFVIRVPGTADQEDIDRVIEAMYEIAELLKDIKGSAIIVEVDAGVAQEHIDRLVDAAEEIEEKYPNVTVIIALDED
B5: LC3A_free_26_2138 (protein)
chain: SDYIDIYLLDKALELLEEIAKELKKAGPEYEELAKKAEEAKKLIEKETLESLKEALKILEEMKKELKKLLDKDPEFMKKLLKKVEEAEKLVKEIIEIMES
B6: LC3A_free_2_2169 (protein)
chain: ARYRVVADVLGPAAGVAALMEVLAKHGLRVTVELEDGTVREGTAAEHAAYFRELAARGEEVLVRITFETDKETAEAVAEELEKVAEETGVALLIDIEKIA
B7: LC3A_free_39_2282 (protein)
chain: SPEEAKEAKERFLKLADSSSPETKELLLELLEIFKDDTEAIKKIVDALEEAKKEGADMLRIAKTALEIAKKLKAEGKSLEEIAEAVVQAIRDEINLQPID
B8: LC3A_28_1231 (protein)
chain: MTPEEIAKRLIEEAKAQLAAGEKVIEIDITAEEGSPENAEALVKALKEIAALANEAKGVSIIVTLDEKIPQESRDKIIKAAEEAEKEYPNVTIIIAIDEE

Molecular target: MAP1LC3A, Q9H492
Experiment: median log2 fold change of GCK-ALFA target abundance (FLAG IP / Myc IP barcode read proportion) (log2 ratio); each designed protein is fused to an ALFA-tag nanobody in HEK293 cells to bring the named protein to FLAG-tagged glucokinase (GCK); Myc marks an untargeted standard; higher = target protein stabilised (more abundant)
Conditions: target protein: 3xFLAG-MCP-GCK-ALFA reporter; HEK293 landing pad (RPLP)
Method: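 LABEL-seq trans screen in HEK293 landing-pad cells. Each de novo designed 100-aa effector handle, binding the indicated effector (E3 ligase, DUB or autophagy protein), is fused to a constant NbALFA target handle and induced with 2 ug/mL doxycycline. A FLAG-MCP-GCK-ALFA target and a Myc-MCP standard reporter were transfected, and after 48 h circRNA barcodes were recovered by anti-FLAG and anti-Myc IP and sequenced. The value is the median across barcodes (at least 3 per design) of log2(FLAG/Myc read-proportion ratio), with the two transfection replicates pooled. Negative values mean degradation and positive values mean stabilisation of the target.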

| Binder | median log2 fold change |
| --- | --- |
| B1 | 0.0965 |
| B2 | -0.0623 |
| B3 | -0.448 |
| B4 | -0.106 |
| B5 | 0.0955 |
| B6 | 0.0356 |
| B7 | 0.308 |
| B8 | 0.249 |
